In PubChem BioAssay AID686979 (National Center for Advancing Translational Sciences (NCATS), 2013):
Where “and” joins values, the source holds several entries; their conditions need not be identical. Equal entries are not always repeated. The whole screen tested about 420,000 compounds, of which about 50,000 (12%) were called active. This list was built around the results that the source calls inconclusive (neither active nor inactive); the mix of calls is not that of the screen. Calls come from the whole dose curve; as a rule, active = well fitted inhibition curve with a large enough effect; inconclusive = small, poorly fitted or top-dose-only effect; inactive = flat fitted curve, though single readings scatter. Potencies of inconclusive entries are left out as doubtful fits. Some structures have more than one record in an assay (separate samples or runs), and their calls can disagree.

assay: qHTS for Inhibitors of human tyrosyl-DNA phosphodiesterase 1 (TDP1): qHTS in cells in presence of CPT; details: chicken DT40 Tdp1-/-;hTDP1 cells + 20 nM CPT, ATP luminescence, 48 h; activity change, negative = growth inhibition: at 46.2 µM (top of the series) unless noted; note: nearly all actives have a fitted effect of over 55% in size
How it was run: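 Chicken DT40 Tdp1-/- cells stably complemented with human TDP1 were seeded at 400 cells/well in medium containing 20 nM camptothecin, exposed to pin-transferred compounds, and grown at 37 °C for at least 48 hr. Viability was read as ATP luminescence.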
% is set by controls: 0 for no effect and ±100 for the full control effect; potency is the fitted concentration of half-maximal effect; tags give direction and shape of the fitted curve.

SMILES	Potency	activity change, negative = growth inhibition
COc1cccc(CNC(=O)CCC2CCCN(c3cc(C)nc(N4CCCC4)n3)C2)c1 (stereo not given)	inconclusive [inhibitor, single point]	–
COC(=O)c1sccc1NS(=O)(=O)c1ccc(F)cc1F	–	inactive: -12.9%
CCC1(c2ccc(Cl)cc2)NC(=O)N(CC(=O)NCc2ccc(F)cc2)C1=O (stereo not given)	inconclusive [inhibitor, partial curve, poor fit]	–
c1ccc(Nc2cc(Nc3ccccc3)[nH]n2)cc1	–	inconclusive: -31.2% [inhibitor]
COc1cccc(C(O)c2nc(-c3ccccc3OC)cs2)c1 (stereo not given)	inconclusive [inhibitor, single point]	–
CC(=O)c1cccc(NC(=O)C(C)OC(=O)CN2C(=O)NC(C)(C)C2=O)c1 (stereo not given)	–	inactive: -10.2%
COc1ccc(NC(=O)c2ccco2)cc1NC(=O)COc1ccc(C)c(C)c1	inconclusive [inhibitor, single point]	–
CCOc1ccccc1N1CCN(Cc2cccc(OC)c2O)CC1	inconclusive [inhibitor, single point]	–
O=C(CSCc1ccc(F)cc1)N1CCN(c2ccccc2F)CC1	active: 20.6 µM	–
CCCCN(C(=O)Cc1ccc(S(=O)(=O)N2CCOCC2)s1)c1c(N)n(CC(C)C)c(=O)[nH]c1=O	–	inactive: -2.34%
O=C(NNC(=O)c1ccc([N+](=O)[O-])cc1C(=O)O)c1ccncc1	–	inactive: 8.49%
CC(C)NC(=O)c1cc(C2CCCCN2C(=O)CCCc2ccccc2)on1 (stereo not given)	inconclusive [inhibitor, single point]	–
CC(C)c1nnc(NC(=O)c2c(O)c3cccc4c3n(c2=O)CCC4)s1	inconclusive [inhibitor, single point]	–
O=C(NCCCn1ccnc1)c1ccc(N2CCCCC2)c([N+](=O)[O-])c1	–	inactive: -1.03%
CCOC(=O)N1CCC(N2Cc3cccc(C(=O)Nc4ccc(N(CC)CC)cc4C)c3C2=O)CC1	inconclusive [inhibitor, single point]	–
CCOC(=O)C(CC)Sc1ccc2nnc(-c3cccnc3)n2n1 (stereo not given)	inactive and active: 14.1 µM	–
O=C(O)c1ccc(-c2nnn(Cc3cccc(C(F)(F)F)c3)n2)cc1	–	inactive: -6.47%
COCCOC(=O)c1[nH]c2c(c1C)C(=O)CC(c1cccs1)C2 (stereo not given)	active: 1.16 µM	–
CC(C)(C)C(=O)Nc1sc2c(c1C(=O)Nc1ccccn1)CCCC2	inconclusive [inhibitor, single point]	–
COc1cc2c(cc1OC)CN(CC(=O)NC(=O)NC1CCCCC1)CC2	–	inactive: -2.89%
COC(=O)c1ccc(NC(=O)CCN2CCN(Cc3ccccc3)CC2)cc1	–	inactive: -1.4%
Cc1nn(-c2ccccc2)c(N)c1N=Nc1cccc(S(=O)(=O)N2CCOCC2)c1	inconclusive [inhibitor, single point]	–
Cc1ccc(-c2nn3c(-c4ccccc4C)nnc3c3ccccc23)cc1	inconclusive [inhibitor, single point]	–

SMILES	Potency	activity change, negative = growth inhibition
CN(CC(=O)Nc1c(Cl)cccc1Cl)C(=O)CC1OC(=O)c2ccccc21 (stereo not given)	–	inactive: 14.5%
Cc1ccc(-n2nc3c(=O)n(CCCC(=O)NC4CCC(C)CC4)nc(C)c3c2C)cc1 (stereo not given)	inconclusive [inhibitor, single point]	–
COc1cccc(-c2cc(NC=O)c3ncc(-c4cccc(C(=O)NCCN(C)C)c4)n3c2)c1	inconclusive [inhibitor, single point]	–
CCOC(=O)C1CCCN(CC(=O)Nc2c(C(=O)OC)[nH]c3ccc(Cl)cc23)C1 (stereo not given)	inconclusive [inhibitor, single point]	–
CCN(CC(=O)Nc1c(F)cccc1F)C(=O)c1cc(-c2cccs2)nn1-c1ccccc1	inconclusive [inhibitor, single point]	–
CNCC(O)CN1CCN(c2ccccc2OC)CC1 (stereo not given)	–	inactive: -3.99%
CN(Cc1ccccc1)CC1C2CCC(C2)C1O (stereo not given)	–	inactive: -15.9%
COc1ccc(OC)c(C2C(C#N)=C(N)N(N(C)C)C3=C2C(=O)CCC3)c1 (stereo not given)	–	inactive: 24.1%
Cc1ccc(-c2cc(=O)[nH]c(NCc3ccccc3)n2)cc1	inconclusive [inhibitor, partial curve]	–
COc1cc2c(cc1OC)CN(C(=O)c1ccc(Cl)c(S(=O)(=O)N3CCCC3)c1)CC2	active: 23.1 µM	–
CCOc1cccc(-c2nnc3sc(COc4ccc(Cl)cc4)nn23)c1	inconclusive [inhibitor, single point]	–
COC(=O)[C@]12CCCCC=C1N(Cc1cccc3ccccc13)C(=O)[C@H](CC(=O)N1CCOCC1)C2	inconclusive [inhibitor, single point]	–
O=C(Nc1ccc(CN2CCOCC2)cc1)c1ccc(Br)cc1	–	inactive: -2.84%
CCCS(=O)(=O)c1c(S(=O)(=O)CCC)c2c(C)cccn2c1C(=O)OC	active: 13 µM	–
CC1(C)CC1C(=O)Nc1ccc([N+](=O)[O-])cc1Br (stereo not given)	–	inactive: 4.29%
O=C(C[n+]1cc(-c2ccccc2)n2c1CCC2)Nc1nc(-c2ccccc2)cs1	inconclusive [inhibitor, single point]	–
CCOc1cc(/C=C2\CCC/C(=C\c3cc(Cl)c(O)c(OCC)c3)C2=O)cc(Cl)c1O	inconclusive [inhibitor, full curve, poor fit]	–
COc1ccc(N2CCN(C(=O)COc3cccc4ccccc34)CC2)cc1	inconclusive [inhibitor, single point]	–
CSCC[C@H](NC(=O)[C@H](Cc1ccccc1)n1c(=O)[nH]c2ccccc2c1=O)C(=O)N[C@@H](Cc1ccccc1)C(=O)O	–	inactive: 0.511%
CC[n+]1c(/C=C(/C)SC)sc2ccccc21	active: 4.61 µM	–
Cc1ccc(S(=O)(=O)N2[C@@H](c3ccc(C(C)C)cc3)C(C(=O)O)=C[C@H]2C(C)(C)C)cc1	inconclusive [inhibitor, single point]	–
Cn1c(SCC(=O)NCCc2ccccc2)nnc1C1CCCCC1	inconclusive [inhibitor, single point]	–
